# From a collection of fitness landscapes (doi:10.1126/science.1257360)
# Some of the results follow.
# B1: PhoQ; a variant is named by its letters at X, in order, P23837 (parent)
# chain: MKKLLRLFFPLSLRVRFLLATAAVVLVLSLAYGMVALIGYSVSFDKTTFRLLRGESNLFYTLAKWENNKLHVELPENIDKQSPTMTLIYDENGQLLWAQRDVPWLMKMIQPDWLKSNGFHEIEADVNDTSLLLSGDHSIQQQLQEVREDDDDAEMTHSVAVNVYPATSRMPKLTIVVVDTIPVELKSSYMVWSWFIYVLSANLLLVIPLLWVAAWWSLRPIEALAKEVRELEEHNRELLNPATTRELTSLVRNLNRLLKSERERYDKYRTTLTDLTHSLKTPLXXLQXXLRSLRSEKMSVSDAEPVMLEQISRISQQIGYYLHRASMRGGTLLSRELHPVAPLLDNLTSALNKVYQRKGVNISLDISPEISFVGEQNDFVEVMGNVLDNACKYCLEFVEISARQTDEHLYIVVEDDGPGIPLSKREVIFDRGQRVDTLRPGQGVGLAVAREITEQYEGKIVAGESMLGGARMEVIFGRQHSAPKDE
# Variants of: B1
# Assay: enrichment ratio after two sorts for PhoP signalling (ratio (wild type AVST 3.29)); higher = more functional
# Details: with PhoP (E. coli)
row,Variant,enrichment ratio
1,KVCR,≤ 0.25
2,TPNA,≤ 0.25
3,DIGG,≤ 0.25
4,LEAF,≤ 0.25
5,KMAT,≤ 0.25
6,IWHV,≤ 0.25
7,EIMN,≤ 0.25
8,GYPY,≤ 0.25
9,GCSF,5.32
10,MLDC,≤ 0.25
11,VTSI,2.17
12,EQNV,≤ 0.25
13,SRYV,≤ 0.25
14,AYKV,≤ 0.25
15,NQGC,≤ 0.25
16,AVNH,≤ 0.25
17,TERW,≤ 0.25
18,IRGI,≤ 0.25
19,MAKD,≤ 0.25
20,LKNN,≤ 0.25
21,TVMC,5.63
22,NEVN,≤ 0.25
23,CTFH,≤ 0.25
24,TRTW,≤ 0.25
25,HTPI,≤ 0.25

row,Variant,enrichment ratio
1,ISTV,0.91
2,QIDR,≤ 0.25
3,WNYL,≤ 0.25
4,MDPP,≤ 0.25
5,DSWD,≤ 0.25
6,MFTH,≤ 0.25
7,SELL,16.3
8,PCQI,≤ 0.25
9,PGGI,≤ 0.25
10,GGRH,≤ 0.25
11,FPGC,≤ 0.25
12,RECL,≤ 0.25
13,YQDI,≤ 0.25
14,PMIN,≤ 0.25
15,TMQI,12.3
16,LQSA,≤ 0.25
17,VSNY,≤ 0.25
18,YNCG,≤ 0.25
19,SSLD,8.94
20,STHQ,≤ 0.25
21,FSFY,≤ 0.25
22,PITM,≤ 0.25
23,PGAF,≤ 0.25
24,DWWL,≤ 0.25
25,RMRP,≤ 0.25

row,Variant,enrichment ratio
1,RSYH,≤ 0.25
2,RDIV,≤ 0.25
3,TAQR,≤ 0.25
4,NITM,≤ 0.25
5,VANM,≤ 0.25
6,FRGC,≤ 0.25
7,LAQV,≤ 0.25
8,HTQY,≤ 0.25
9,WFLI,≤ 0.25
10,PCRA,≤ 0.25
11,NDQN,≤ 0.25
12,PRCR,≤ 0.25
13,SEVQ,11.9
14,YHRG,≤ 0.25
15,SMWP,≤ 0.25
16,RNPF,≤ 0.25
17,FLCA,≤ 0.25
18,INHW,≤ 0.25
19,FMRP,≤ 0.25
20,GINV,≤ 0.25
21,TVFY,≤ 0.25
22,ICDD,≤ 0.25
23,TIFS,≤ 0.25
24,WLQG,≤ 0.25
25,KFYM,≤ 0.25

row,Variant,enrichment ratio
1,SSMA,10.1
2,GCIN,1.39
3,YRLQ,≤ 0.25
4,KHQH,≤ 0.25
5,FHCH,≤ 0.25
6,QYHH,≤ 0.25
7,LEGN,≤ 0.25
8,EEAM,≤ 0.25
9,NIGI,≤ 0.25
10,YSEE,1.02
11,PYRN,≤ 0.25
12,RGFE,≤ 0.25
13,RASN,≤ 0.25
14,KPSI,≤ 0.25
15,VWIL,≤ 0.25
16,TQSF,7.45
17,IDRG,≤ 0.25
18,TYIQ,≤ 0.25
19,RDWN,≤ 0.25
20,KGNF,≤ 0.25
21,DNVK,≤ 0.25
22,GSVM,4.79
23,WSFE,≤ 0.25
24,YSQN,≤ 0.25
25,VFEH,≤ 0.25

row,Variant,enrichment ratio
1,TSVP,≤ 0.25
2,PSYK,≤ 0.25
3,LHKQ,≤ 0.25
4,PFQH,≤ 0.25
5,HALD,≤ 0.25
6,QPFM,≤ 0.25
7,YPMG,≤ 0.25
8,MFYS,≤ 0.25
9,INLH,≤ 0.25
10,GHIE,≤ 0.25
11,FWML,≤ 0.25
12,RANQ,≤ 0.25
13,WDKR,≤ 0.25
14,QQHW,≤ 0.25
15,KWLV,≤ 0.25
16,YQLM,17.7
17,RKFF,≤ 0.25
18,RYIP,≤ 0.25
19,MLIQ,≤ 0.25
20,DHYW,≤ 0.25
21,GEES,≤ 0.25
22,DTTQ,≤ 0.25
23,KKMY,≤ 0.25
24,FDVC,≤ 0.25
25,ICVW,≤ 0.25

row,Variant,enrichment ratio
1,DPSE,≤ 0.25
2,WSGA,≤ 0.25
3,YRRH,≤ 0.25
4,GYRF,≤ 0.25
5,KYAA,≤ 0.25
6,QMVR,≤ 0.25
7,RARR,≤ 0.25
8,LPAS,≤ 0.25
9,LLMP,≤ 0.25
10,AYTS,≤ 0.25
11,RNNI,≤ 0.25
12,GLPC,≤ 0.25
13,LHPS,≤ 0.25
14,FYFD,≤ 0.25
15,FKDQ,≤ 0.25
16,VDKA,≤ 0.25
17,HKHY,≤ 0.25
18,KAWV,≤ 0.25
19,KDMP,≤ 0.25
20,LLTF,≤ 0.25
21,AENM,≤ 0.25
22,IHWF,≤ 0.25
23,EMTY,≤ 0.25
24,KDVH,≤ 0.25
25,EQFS,≤ 0.25

row,Variant,enrichment ratio
1,MPQQ,≤ 0.25
2,PANM,≤ 0.25
3,FISP,≤ 0.25
4,KYFM,≤ 0.25
5,LFCW,≤ 0.25
6,EAHI,≤ 0.25
7,GRGP,≤ 0.25
8,VWII,≤ 0.25
9,KIMG,≤ 0.25
10,KRRI,≤ 0.25
11,TQHT,6.87
12,FVKF,≤ 0.25
13,RPFD,≤ 0.25
14,HLCQ,≤ 0.25
15,QTQS,≤ 0.25
16,HKNS,≤ 0.25
17,FCKR,≤ 0.25
18,FCTG,≤ 0.25
19,PYGP,≤ 0.25
20,TPFR,≤ 0.25
21,SKSG,1.03
22,IKAM,≤ 0.25
23,WTEL,≤ 0.25
24,HQMG,≤ 0.25
25,EDVV,≤ 0.25

row,Variant,enrichment ratio
1,TGLK,8.32
2,IPRL,≤ 0.25
3,RKFG,≤ 0.25
4,DAYL,≤ 0.25
5,IHKN,≤ 0.25
6,WSGE,≤ 0.25
7,GLSW,≤ 0.25
8,MIWR,0.653
9,SDLM,7.82
10,EVWS,≤ 0.25
11,SDVW,≤ 0.25
12,QRGI,≤ 0.25
13,NMTM,≤ 0.25
14,VLWK,≤ 0.25
15,IKQG,≤ 0.25
16,RKGK,≤ 0.25
17,DNDY,≤ 0.25
18,FQWF,≤ 0.25
19,FKLP,≤ 0.25
20,PLSY,≤ 0.25
